Test results as given in PubChem BioAssay (NCI).
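The compound was tested at five concentrations on cells cultured in 96-well plates, with a 48-hour exposure period. Definition used: TGI = concentration required for complete inhibition of growth.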 For part of its entries the source gives two or more results. This list holds those alone. There may be further records. The tests behind the records often covered other concentration ranges, which the source does not state; some values may only mark the edge of a range.

Columns and labels:
Assay in all cases: NCI tumour cell line growth inhibition, 48 h
CCRF-CEM leukemia = tested on: CCRF-CEM leukemia
MOLT-4 leukemia = tested on: MOLT-4 leukemia
OVCAR-4 ovarian = tested on: OVCAR-4 ovarian
SNB-19 CNS = tested on: SNB-19 CNS
NCI-H23 lung = tested on: NCI-H23 lung
SK-MEL-2 melanoma = tested on: SK-MEL-2 melanoma
XF 498 CNS = tested on: XF 498 CNS
HOP-18 NSCLC = tested on: HOP-18 NSCLC
M14 melanoma = tested on: M14 melanoma

SMILES | TGI (CCRF-CEM leukemia) | TGI (MOLT-4 leukemia) | TGI (OVCAR-4 ovarian) | TGI (SNB-19 CNS) | TGI (NCI-H23 lung) | TGI (SK-MEL-2 melanoma) | TGI (XF 498 CNS) | TGI (HOP-18 NSCLC) | TGI (M14 melanoma)
COc1cccc2c1C(=O)c1c(O)c3c(c(O)c1C2=O)CC(O)(C(=O)CO)CC3OC1CC(N)C(O)C(C)O1 (stereo not given) | 8.42 µg/mL and 64.1 µg/mL | 75 µg/mL and 15 µg/mL | – | – | – | – | – | – | –
COc1cccc2c1C(=O)c1c(O)c3c(c(O)c1C2=O)C[C@@](O)(C(=O)CO)CC3OC1CC(NCCCC(OC(C)=O)OC(C)=O)C(O)C(C)O1 (stereo not given in full) | – | 7.72 nM and > 1 µM | 4.65 nM and 102 nM | 8.81 nM and > 1 µM | 4.55 nM and 0.231 nM | 3.52 nM and 0.177 nM | 4.12 nM and 0.357 nM | 9.92 nM and 482 nM | 3.77 nM and 0.211 nM
